According to the supplement of paper PMC12217912:
The list shows a part of the results. The full chains were built here from the parent and the listed change. Values near 0.05 are background.

B1: TEV protease; numbered along this chain (parent)
chain: MGESLFKGPRDYNPISSSICHLTNESDGHTTSLYGIGFGPFIITNKHLFRRNNGTLVVQSLHGVFKVKDTTTLQQHLVDGRDMIIIRMPKDFPPFPQKLKFREPQREERICLVTTNFQTKSMSSMVSDTSCTFPSGDGIFWKHWIQTKDGQCGSPLVSTRDGFIVGIHSASNFTNTNNYFTSVPKNFMELLTNQEAQQWVSGWRLNADSVLWGGHKVFMVKPEEPFQPVKEATQL

Variants of: B1
Test: raw area under fraction-flipped curve 0-4 h after induction (AUC4h, not background-subtracted), DNA-recorder readout of cleavage of the substrate (dimensionless); higher = more cleavage of the substrate by the protease variant
Conditions: temperature: 34 °C; time window: 0-4 h after rhamnose induction
Experimental: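 In vivo DNA recorder in E. coli TOP10(DE3) ΔrhaA at 34 °C. Each TEVp single-site mutant (parent TEVp 0) is paired with a single-site variant of the 7-mer TEVs (canonical ENLYFQ|S). The substrate sits between flexible linkers in a Bxb1-sfGFP-TEVs-SsrA fusion, so cleavage stabilises Bxb1 and speeds flipping of a recombination array, read by NGS. The value is the raw area under the fraction-flipped curve over 0-4 h after rhamnose induction (AUC4h), with ≥20 reads per time point. It is not background-subtracted; inactive controls average about 0.047.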
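Further: Bxb1 expression induced with 0.2% (w/v) L-rhamnose at OD600 near 0.5, cultures sampled hourly, flipped fraction per protease–substrate barcode pair counted by paired-end Illumina sequencing.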

Variant	area with substrate ENLYEQS	area with substrate ENLYGQS	area with substrate ENLYHQS	area with substrate ENLYKQS	area with substrate ENLYMQS	area with substrate ENLYNQS	area with substrate ENLYPQS	area with substrate ENLYRQS	area with substrate ENLYSQS	area with substrate ENLYTQS	area with substrate ENLYWQS	area with substrate ENLYYQS	area with substrate ENLYDQS	area with substrate ENLYIQS	area with substrate ENLYLQS	area with substrate ENLYQQS	area with substrate ENLYVQS
S26V	0.0578	0.0513	0.065	0.0696	0.0673	0.0563	0.0745	0.0602	0.0731	0.0761	0.0482	0.0608	–	–	–	–	–
V64F	–	–	–	–	–	–	–	0.0773	–	–	–	–	–	–	–	–	–
V64N	0.0662	0.0652	0.0684	0.0445	0.0826	0.135	0.0635	0.0569	0.0751	0.0825	0.0824	0.0718	0.0659	0.134	0.0864	0.0602	0.131
V210G	0.059	–	0.0572	–	–	0.0634	0.0747	0.0601	–	0.0593	0.057	–	0.0561	–	–	–	0.0938
L99C	0.0709	–	–	0.0636	0.0907	0.0695	0.0702	0.0611	0.0594	0.0758	–	–	0.0637	0.102	–	–	0.0753
P89F	0.0369	0.0552	0.05	0.0569	0.0563	0.0262	0.0446	–	–	–	0.0443	0.0361	–	–	–	0.0579	0.0617
F117M	0.0762	–	0.0634	–	–	0.0901	0.0675	0.0574	–	0.0575	0.0711	0.0528	–	0.169	–	0.0485	–
S169A	0.103	0.066	0.0629	–	0.0866	0.0813	0.0564	0.0626	–	0.0653	0.0608	0.0515	–	–	–	0.0603	0.122
S169N	0.0681	0.0583	0.0622	0.0737	–	–	0.0582	0.0636	0.053	–	0.049	0.0355	0.0626	0.0678	0.0806	0.051	0.0861
G35L	0.0348	–	–	0.0621	–	–	–	–	–	–	–	–	–	0.0476	–	–	0.0509
G35M	–	–	–	0.0438	–	0.0896	–	–	–	–	–	–	–	–	–	0.0407	–
N45S	0.0612	0.0781	0.0666	0.0442	0.0608	0.0492	0.061	0.0629	–	–	0.0599	–	–	0.0735	–	0.0664	0.0775
T132G	0.0679	0.0528	0.051	0.0603	0.0847	0.0636	0.0622	0.0731	0.0596	–	–	0.0646	0.0446	0.0854	–	–	–
N177V	0.0682	0.0739	0.0797	–	0.133	0.076	0.0898	0.0603	0.0936	–	–	–	0.0618	0.147	–	0.0675	0.131
Q198V	0.0649	0.0791	0.0785	0.0583	–	0.0549	0.0679	0.0474	0.0779	–	0.0583	–	–	0.154	–	0.095	–
W144Q	0.0728	–	0.237	0.0581	–	–	–	–	0.0545	0.0645	0.0686	0.0636	0.0513	0.0764	–	–	0.0869
W144L	0.0532	0.0618	0.0681	–	0.0826	–	0.07	–	0.0765	–	–	–	–	–	0.0829	–	–
K216L	–	–	–	0.0589	–	0.0628	–	0.0695	0.103	–	–	–	0.0559	–	–	–	–
K221Y	0.0631	0.0701	0.0564	0.059	0.087	0.0582	0.0636	–	0.0755	0.0679	0.0672	–	0.0845	–	0.0652	0.0591	0.106
E103K	0.0617	0.066	0.0455	–	0.0828	–	0.0702	0.0732	0.0729	–	–	0.0498	0.0646	–	–	–	0.127
E103Y	–	0.0575	0.0678	0.0705	–	0.0668	0.0569	0.0709	0.0713	–	0.0673	–	–	–	–	0.0594	–
L73G	0.0561	0.05	0.04	0.0515	0.047	0.0463	0.0489	0.0415	–	0.0428	–	–	0.0312	0.0562	0.0499	0.0291	0.0532
F65E	0.0582	0.0704	0.0612	0.0612	0.0873	0.0601	0.0487	0.0682	–	0.0722	0.0784	0.0586	0.0508	0.0612	–	0.0718	–
V229L	0.0586	0.0763	0.0702	0.0547	0.0977	0.0982	–	0.0614	0.0672	0.102	0.0942	0.0746	0.0587	0.119	–	0.056	–
M219L	0.0549	–	0.0684	0.0298	0.0818	0.0557	0.104	–	–	–	0.081	–	–	0.132	–	–	–
L61A	–	0.0611	0.0797	0.0383	–	0.0732	0.0729	0.0604	0.0598	–	0.0748	–	0.0729	0.133	–	–	0.109
E189I	0.063	0.0598	0.0655	0.058	–	–	0.0695	–	0.0753	–	–	0.0722	–	0.0852	0.0839	–	0.11
E189D	0.0781	0.0811	0.0688	0.0552	–	0.0576	0.0644	0.0712	0.0678	–	–	–	–	0.122	–	–	0.118
